Measurements: the supplement of paper PMC3334620
Whole data set: some 33,000 sequences, median “E-score (-0.5 to 0.5)” near -0.032, cut for the highest 2% near 0.36. The list shows a part of the results.

Each sequence was assayed against T1, Sko1 (UniProt Q02100) (assay: PBM E-score (8-mer binding enrichment) (E-score (-0.5 to 0.5)); higher = stronger / more preferred TF binding; most listed sequences are background and not binding sites). Conditions: protein concentration: 200 nM; construct: GST-full length.
T1 sequence: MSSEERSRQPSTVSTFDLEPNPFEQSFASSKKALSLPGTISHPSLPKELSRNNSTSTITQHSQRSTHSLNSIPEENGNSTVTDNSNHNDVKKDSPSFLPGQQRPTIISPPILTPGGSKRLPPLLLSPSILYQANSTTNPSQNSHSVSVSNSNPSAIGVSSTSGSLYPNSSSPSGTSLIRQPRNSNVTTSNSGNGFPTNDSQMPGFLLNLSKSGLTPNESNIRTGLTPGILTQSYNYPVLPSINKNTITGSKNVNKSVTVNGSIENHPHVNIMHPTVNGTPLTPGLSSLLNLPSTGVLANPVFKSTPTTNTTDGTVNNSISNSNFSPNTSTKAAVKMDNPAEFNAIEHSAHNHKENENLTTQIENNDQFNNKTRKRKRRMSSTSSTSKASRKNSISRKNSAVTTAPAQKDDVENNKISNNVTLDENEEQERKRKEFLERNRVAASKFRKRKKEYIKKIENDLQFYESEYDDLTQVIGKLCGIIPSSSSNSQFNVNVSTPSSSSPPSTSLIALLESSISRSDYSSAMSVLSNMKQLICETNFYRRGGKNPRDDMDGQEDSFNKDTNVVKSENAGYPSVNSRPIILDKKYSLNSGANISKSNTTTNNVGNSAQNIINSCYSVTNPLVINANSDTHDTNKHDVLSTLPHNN
How it was run: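 For each ungapped eight-base word taken together with its reverse complement, the Universal PBM Analysis Suite assigned an E-score. Binding data came from GST-tagged yeast transcription factors, applied at about 100-200 nM, on universal all-10-mer Agilent arrays made double-stranded by primer extension. Fluorescent anti-GST marked bound protein, and scans were normalised with masliner.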

Point of comparison: CGCGGTAA, “PBM E-score” value 0.0948. Against it:
- AGCTGATC — lower, -0.0352
- CTCTCGAC — lower, -0.164
- AGATATCG — lower, -0.0349
- AGGGACCG — lower, -0.358
- CGACGGGA — lower, -0.017
- AGTAGTAA — lower, 0.0694
- CACTGTGA — lower, 0.0204
- CTCTTGAA — lower, -0.0298
- AATTAGAC — higher, 0.191
- AGGAGCGA — lower, -0.244
- ATTGGTCA — lower, -0.131
- ATCCGGCA — lower, -0.246
- ATGACTAG — lower, 0.0773
- ATCATCGA — higher, 0.2
- TACGCAAA — higher, 0.415
- ATAGAACG — higher, 0.226
- AGTCGAGA — lower, 0.0118
- AAAGGCAG — lower, -0.106
- TAGTGGCA — lower, -0.0635
- TCAACGGA — lower, 0.0523
- CAACGATC — lower, -0.121
- CTACGTAA — higher, 0.489
- ATGCCTGC — lower, -0.175
- CATACAGA — higher, 0.144
- ATGGAGGC — lower, -0.247
- AAGTTCGA — lower, 0.006
- GCCGTCAA — lower, -0.081
- CGAGCTTA — lower, 0.0357
- CCTGATCC — lower, -0.263
- AAGCTTGT — lower, 0.0822
- CTTCTGCC — lower, -0.11
- GTTTGGCA — lower, 0.051
- AGCGACAA — lower, 0.0454
- AAGGTTTG — higher, 0.124
- TATGGCAA — lower, -0.0424
- CCTATCTC — lower, -0.0534
- GACGGCTC — lower, -0.301
- CTGGAGCA — lower, -0.176
- AAATACCC — lower, -0.0735
- GCAAAGCA — lower, 0.0107
- GCTCGGCC — lower, -0.295
- AGGGCTCA — lower, -0.375
- CTCCCGTC — lower, 0.0312
- ACAGTACT — lower, -0.0322
- AATCGGGA — lower, -0.0793
- CTATCGAC — lower, -0.288
- CTGTACGC — higher, 0.115
- GCCGAAAA — higher, 0.139
- AGTCAACT — lower, -0.141
- CTAGTGCA — lower, -0.0221
- CAATCGGC — lower, -0.101
- ACAAATTC — higher, 0.124
- TGTGCCAA — higher, 0.101
- GCCAAACA — lower, -0.0618
- GCCGCACC — lower, -0.0862
- CCTGACAG — lower, -0.164
- CACAATAA — higher, 0.111
- CCAAGCTC — lower, 0.0129
- CAGTATTC — higher, 0.159
- AGGGCCTC — lower, -0.29
- AAGGCTGT — lower, -0.282
- GGTCGAAA — lower, -0.175
- GACCCTAC — lower, -0.0556
- GGTACTCA — lower, 0.0274
- ATAGCGAT — lower, 0.0688
- GCACCATA — lower, -0.0106
- CTGCCGTA — lower, -0.0775
- TATCACAA — higher, 0.156
- CTTTTGTC — lower, 0.0309
- CCCTTCAC — lower, -0.0956
- GGTTCGTA — higher, 0.119
- CGCTCCAC — lower, -0.305
- CATTTTAG — higher, 0.164
- ACAGCCTC — lower, -0.184
- TCTTTACA — lower, 0.0605
- AGCTAAAA — higher, 0.129
- ATGGCATG — higher, 0.139
- TAGAGCAA — lower, -0.138
- ATTCGAAG — lower, 0.0402
- GTCGGCGA — lower, -0.0906
- TGATCGAA — lower, 0.0913
- CAGCTCAG — lower, -0.0505
- AATGGTGT — higher, 0.108
- ATATTTCC — lower, 0.0933
- CCTGTCCC — lower, -0.342
